In the supplement of paper PMC4723716:
± gives the uncertainty stated by the source. In all, about 9,900 compounds were measured (“viability index relative to DMSO control”: median about 1, lowest 2% from about 0.85 on). The list shows a part of the results.

Tested on: Plasmodium falciparum NF54 stage V gametocytes
Test: viability index relative to DMSO control (fraction); higher = less gametocyte killing
Settings: 2.5 µM, incubation time: 72 h
In short: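 P. falciparum NF54 stage V gametocytes in serum-free screening medium (0.75% gametocytemia, 1.25% hematocrit, 10 µl) were incubated with compound at 2.5 µM in 1,536-well plates for 72 hr at 37°C under low oxygen. Then 3 µl of 2.5 µM MitoTracker Red CMXRos plus 0.13% saponin was added for one to two hours. One field per well was imaged, 20–70 µm2 red particles were counted, and the viability index was the count divided by the plate mean of DMSO wells.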

[1] = library set: Broad Institute DOS

SMILES | viability index [1] | viability index (library set: Broad Institute Blood Stage)
O=C(c1cccc(F)c1)N1C[C@@H]2[C@H](c3ccccc31)[C@H](CO)N2Cc1cocn1 | 1 ± 0.13 | –
O=C(NCC[C@@H]1CC[C@H](NS(=O)(=O)Cc2ccccc2)[C@@H](CO)O1)C1CCCCC1 | 1.04 ± 0.091 | –
C[C@@H]1CN([C@@H](C)CO)C(=O)c2cc(NC(=O)Nc3ccccc3)ccc2O[C@@H](C)CCCCO[C@H]1CN(C)C(=O)Nc1ccccc1 | 1.11 ± 0.13 | –
CO[C@H]1CN(C)C(=O)c2ccc(NC(=O)c3cccc(F)c3)cc2OC[C@H](C)NC[C@H]1C | 1.11 ± 0.11 | –
Cc1noc(C)c1S(=O)(=O)N(C)C[C@H]1OCCCC[C@H](C)Oc2ccc(NS(=O)(=O)c3cn(C)cn3)cc2C(=O)N([C@@H](C)CO)C[C@@H]1C | 1.1 ± 0.12 | –
COCC(=O)N(C[C@H]1N[C@H](CO)[C@@H]1c1ccc(-c2cncnc2)cc1)C(C)C | 1.03 ± 0.038 | –
CN1C(=O)c2cc(NC(=O)C3CCOCC3)ccc2OC[C@@H]2O[C@H](CC(=O)NCC3CCCCC3)CC[C@@H]21 | 1.12 ± 0.047 | –
CN1C(=O)c2cc(NC(=O)Nc3ccccc3F)ccc2OC[C@@H]2O[C@@H](CC(=O)NCCc3ccncc3)CC[C@H]21 | 0.957 ± 0.052 | –
CO[C@H]1CN(C)C(=O)c2ccc(NC(C)=O)cc2OC[C@@H](C)N(C(=O)c2cnccn2)C[C@@H]1C | 0.949 ± 0.018 | –
COCC(=O)N1C[C@H](C)[C@H](OC)CN(C)C(=O)c2ccc(NC(=O)Nc3cccc(F)c3)cc2OC[C@H]1C | 1.01 ± 0.1 | –
COCC(=O)N1[C@@H](C#N)[C@H](c2ccc(C#Cc3ccccc3F)cc2)[C@@H]1CO | 1.07 ± 0.019 | –
C[C@H]1CN([C@@H](C)CO)C(=O)CCCn2cc(nn2)CO[C@H]1CN(C)C(=O)Nc1cccc(C(F)(F)F)c1 | 1.04 ± 0.052 | –
C[C@H](CO)N1C[C@H](C)[C@H](CN(C)Cc2ccc(Cl)c(Cl)c2)Oc2ccc(NC(=O)CCCN(C)C)cc2C1=O | 1.08 ± 0.071 | –
C[C@H](CO)N1C[C@H](C)[C@H](CN(C)S(C)(=O)=O)OCCCC[C@H](C)Oc2ccc(NC(=O)NC3CCCCC3)cc2C1=O | 1.15 ± 0.016 | –
O=C(Cc1ccccn1)N1CC(=O)N2[C@H](C1)[C@H](c1ccc(C#CCC3CCCC3)cc1)[C@@H]2CO | 1.032 ± 0.0086 | –
COc1ccc(NC(=O)N(C)C[C@H]2OCc3cnnn3CCCC(=O)N([C@H](C)CO)C[C@H]2C)c(OC)c1 | 1.01 ± 0.021 | –
O=C(C[C@@H]1CC[C@H]2[C@@H](COC[C@@H](O)CN2C(=O)c2ccncc2)O1)Nc1ccc(-c2ccccc2)cc1 | 1.11 ± 0.073 | –
CCNC(=O)C[C@H]1CC[C@@H]2[C@H](COC[C@H](O)CN2C(=O)C2CCCC2)O1 | 1 ± 0.12 | –
Cc1cccc(S(=O)(=O)N2C[C@@H](O)COC[C@@H]3O[C@H](CC(=O)Nc4ccccc4)CC[C@H]32)c1 | 1.03 ± 0.046 | –
CC(C)C[C@H]1COCn2nncc2CC[C@H](C)C(=O)N1 | 1.06 ± 0.041 | –
C[C@@H]1CN([C@H](C)CO)C(=O)Cc2cc(NC(=O)C3CCCCC3)ccc2O[C@H]1CN(C)Cc1ccc(Cl)c(Cl)c1 | 1.05 ± 0.11 | –
Cc1noc(C)c1NC(=O)N(C)C[C@H]1OCc2ccccc2-c2c(n(C)c3ccccc23)C(=O)N([C@@H](C)CO)C[C@@H]1C | 0.976 ± 0.099 | –
CCC(=O)N1CC(=O)N2[C@@H](CO)[C@@H](c3ccc(C#CCC(C)C)cc3)[C@@H]2C1 | 1.04 ± 0.013 | –
C[C@H](CO)N1C[C@H](C)[C@H](CN(C)Cc2ccc3c(c2)OCO3)Oc2ccc(NS(=O)(=O)c3cn(C)cn3)cc2CC1=O | 1.03 ± 0.027 | –

SMILES | viability index [1] | viability index (library set: Broad Institute Blood Stage)
COc1ccc2c3c([C@H](CO)NC[C@]33CN(CC4CCOCC4)C3)n(C)c2c1 | 1.01 ± 0.077 | –
CO[C@@H]1CN(C)C(=O)c2cc(NS(=O)(=O)c3ccc(Cl)cc3)ccc2OC[C@@H](C)N(C(=O)NC(C)C)C[C@@H]1C | 1.04 ± 0.021 | –
O=C(C1CCCC1)N1[C@@H](CO)[C@@H](c2ccccc2)C12CN(Cc1ccc(F)cc1)C2 | 1.11 ± 0.057 | –
CN(C)c1ccc2c(c1)[C@H]1C[C@@H](CC(=O)NCc3ccccn3)O[C@@H](CO)[C@H]1O2 | 1.01 ± 0.033 | –
COc1cccc(NC(=O)N2[C@H](CO)[C@H](c3ccccc3)[C@H]2CNCC(C)C)c1 | 1.1 ± 0.019 | –
COc1ccc2c3c([C@H](CO)N(C[C@]33CN(CC4CCOCC4)C3)S(C)(=O)=O)n(C)c2c1 | 0.992 ± 0.023 | –
C[C@@H](NC(=O)C[C@@H]1CC[C@@H]2[C@H](COC[C@@H](O)CN2C(=O)Nc2cccc(Cl)c2)O1)c1ccccc1 | 1.05 ± 0.025 | –
Cc1noc(C)c1NC(=O)Nc1ccc2c(c1)C(=O)N([C@@H](C)CO)C[C@@H](C)[C@@H](CN(C)S(=O)(=O)c1cccs1)OCCCC[C@@H](C)O2 | 1.09 ± 0.064 | –
COC(=O)[C@@H]1[C@@H](CO)[C@@H]2Cn3c(ccc(C4=CCCCC4)c3=O)[C@@H]2N1C(=O)c1ccccc1F | 1.08 ± 0.049 | –
O=C1CN(S(=O)(=O)Cc2ccccc2)C[C@@H]2[C@@H](c3ccc(C#Cc4ccccc4)cc3)[C@@H](CO)N12 | 0.892 ± 0.061 | –
C[C@H](CO)N1C[C@H](C)[C@H](CN(C)Cc2ccc(Cl)c(Cl)c2)Oc2c(NS(=O)(=O)c3ccc(F)cc3)cccc2C1=O | 1.01 ± 0.034 | –
O=C(C1CCCCC1)N1CC2(C1)[C@@H](c1ccccc1)[C@@H](CO)N2CCC(F)(F)F | 1.1 ± 0.029 | –
N#C[C@@H]1[C@H](c2ccccc2C2=CCCC2)[C@@H](CO)N1C(=O)NC1CCCCC1 | 1.08 ± 0.013 | –
CS(=O)(=O)N1CC(=O)N2[C@H](CO)[C@@H](c3ccc(Br)cc3)[C@H]2C1 | 0.99203 ± 8.3e-05 | –
C[C@@H]1CN([C@H](C)CO)C(=O)CCCn2nncc2CO[C@H]1CN(C)CC1CCCCC1 | 1.113 ± 0.011 | –
N#Cc1cccc(-c2ccc3c(c2)[C@@H]2[C@@H](CCN2C(=O)c2ccccc2F)[C@@H](CO)N3)c1 | 1.139 ± 0.011 | –
Cc1noc(C)c1S(=O)(=O)N(C)C[C@H]1OCc2cn(nn2)CCCC(=O)N([C@@H](C)CO)C[C@H]1C | 1.09 ± 0.018 | –
CCCNC(=O)N1C[C@H]2[C@@H](c3ccccc31)[C@H](CO)N2Cc1cccc(OC)c1 | 1.06 ± 0.026 | –
COc1ccc(S(=O)(=O)N(C)C[C@@H]2OCc3ccccc3-c3c(n(C)c4ccccc34)C(=O)N([C@@H](C)CO)C[C@@H]2C)cc1 | – | 0.936 ± 0.044
Cc1ccc(-c2ccccc2[C@@H]2[C@H](C#N)N(S(C)(=O)=O)[C@H]2CO)cc1 | 0.998 ± 0.081 | –
Cn1cnc(S(=O)(=O)N[C@@H]2CC[C@@H](CC(=O)NCC3CCCCC3)O[C@@H]2CO)c1 | 0.994 ± 0.011 | –
COCCNC(=O)c1cc2c(c(-c3cccc(C4=CCCCC4)c3)n1)[C@H](CCO)N([S@@](=O)C(C)(C)C)C2 | 1.06 ± 0.027 | –
CN(C)CC(=O)N1CC2(C1)[C@@H](c1ccccc1)[C@@H](CO)N2S(C)(=O)=O | 1.11 ± 0.018 | –
CO[C@@H]1CN(C)C(=O)c2ccc(NC(=O)C3CC3)cc2OC[C@@H](C)N(C(C)=O)C[C@@H]1C | 1.02 ± 0.042 | –

SMILES | viability index [1] | viability index (library set: Broad Institute Blood Stage)
COC(=O)C[C@@H]1C=C[C@@H](N)[C@H](CO)O1 | 1.12 ± 0.17 | –
COc1ccccc1CNC(=O)C[C@H]1CC[C@H]2[C@H](COc3ccc(NC(C)=O)cc3C(=O)N2C)O1 | 0.988 ± 0.1 | –
CCCN1C[C@H](C)[C@@H](OC)CN(C)C(=O)c2ccc(NS(=O)(=O)c3cn(C)cn3)cc2OC[C@H]1C | 0.984 ± 0.024 | –
C[C@H](O)C#Cc1ccc([C@@H]2[C@H]3CN(C(=O)c4ccc5c(c4)OCO5)CCCCN3[C@H]2CO)cc1 | 1.055 ± 0.0072 | –
CCCNC(=O)N[C@@H]1C=C[C@H](CC(=O)N2CCN(C)CC2)O[C@@H]1CO | 0.936 ± 0.12 | –
FC(F)(F)c1cccc(CN2[C@@H]3CNC[C@H]2[C@@H]3c2ccc(-c3cccnc3)cc2)c1 | 1.12 ± 0.04 | –
CO[C@H]1CC[C@@H]2CCOc3c(C#N)cccc3C(=O)N(C)CC3(CCCCC3)CC(=O)N(C)C[C@H]1O2 | 1.02 ± 0.009 | –
O=C(C[C@@H]1CC[C@H]2[C@@H](COC[C@H](O)CN2Cc2cc(F)ccc2F)O1)NCc1ccc(Oc2ccccc2)cc1 | 1.1 ± 0.15 | –
CCS(=O)(=O)Nc1ccc2c(c1)C(=O)N(C)[C@@H]1CC[C@H](CC(=O)N3CCN(C)CC3)O[C@@H]1CO2 | 0.958 ± 0.047 | –
CCc1cnc(N2[C@H](CO)[C@@H](c3ccccc3-c3ccccc3C)[C@@H]2C#N)s1 | 1.1 ± 0.097 | –
COCC(=O)Nc1ccc2c(c1)[C@H]1C[C@H](CC(=O)N[C@@H](C)c3ccccc3)O[C@H](CO)[C@H]1O2 | 1.062 ± 0.0016 | –
CS(=O)(=O)N1[C@@H]2CNC[C@H]1[C@H]2c1ccc(-c2ccccc2)cc1 | 0.968 ± 0.14 | –
C[C@@H]1CN([C@H](C)CO)C(=O)c2c(c3ccccc3n2C)-c2ccccc2CO[C@H]1CN(C)C(=O)[C@H](Cc1ccccc1)N(C)C | 0.999 ± 0.032 | –
Cc1noc(C)c1S(=O)(=O)N(C)C[C@@H]1Oc2c(NS(=O)(=O)c3cn(C)cn3)cccc2C(=O)N([C@H](C)CO)C[C@H]1C | 0.989 ± 0.029 | –
O=C(NC1CCCCC1)[C@@H]1[C@@H](CO)[C@@H]2Cn3c(cccc3=O)[C@H]1N2Cc1cccnc1 | 1.03 ± 0.058 | –
N#Cc1ccc(-c2ccc([C@@H]3[C@H]4CNCC(=O)N4[C@H]3CO)cc2)cc1 | 0.889 ± 0.055 | –
COc1cccc(S(=O)(=O)N(C)C[C@@H]2OCc3ccccc3-c3c(n(C)c4ccccc34)C(=O)N([C@H](C)CO)C[C@H]2C)c1 | 1.01 ± 0.012 | –
N#C[C@@H]1[C@H](c2ccccc2-c2ccccc2)[C@@H](CO)N1C(=O)Cc1ccncc1 | 1.05 ± 0.022 | –
CN1C(=O)c2cc(NC(=O)C3CCOCC3)ccc2OC[C@H]2O[C@H](CC(=O)NCC3CCCCC3)CC[C@H]21 | 1.02 ± 0.11 | –
OC[C@@H]1[C@H](c2ccccc2)C2(CN(CCC(F)(F)F)C2)N1Cc1nccs1 | 1.14 ± 0.016 | –
COCCNC(=O)C[C@H]1CC[C@H]2[C@@H](COc3ccc(NC(=O)Nc4cccc(F)c4)cc3C(=O)N2C)O1 | 1.1 ± 0.086 | –
O=C(NC[C@H]1N[C@H](CO)[C@@H]1c1ccccc1)c1ccccc1F | 0.99 ± 0.012 | –
COc1ccc2c3c([nH]c2c1)[C@@H](CO)N(C[C@]31CN(Cc2cc(on2)-c2ccccc2)C1)C(=O)Nc1ccc(F)cc1 | 0.989 ± 0.019 | –
